In PubChem BioAssay AID1508623 (National Center for Advancing Translational Sciences (NCATS), 2021):
The campaign covered roughly 48,000 compounds. About 450 (0.94%) were called active. Another 19% or so got no clear call; they are omitted. Calls follow the shape of the dose curve; as a rule, active = well fitted inhibition curve with a large enough effect; inconclusive = small, poorly fitted or top-dose-only effect; inactive = no such curve, though single readings can be large or run the other way. The list shows a part of the results.

assay: Primary qHTS for Identification of Small Molecule Inhibitors of Huntingtin Promoter Activity; settings: HEK293 HTT promoter firefly luciferase reporter (activity 0% = vehicle and -100% = no light), 24 h; series mostly up to 57.5 µM; activity change, negative = inhibition: at the top concentration; also: nearly all actives have a fitted effect of over 50% in size
Outline: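 HEK293 cells carrying firefly luciferase reporters were seeded at 2,500 per well in Opti-MEM and cultured for 24 h. They were then treated with compounds at up to 57.5 uM final for 24 h at 37 degrees C before Dual-Glo luminescence readout.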

Activity change, negative = inhibition, inactive:
COc1cccc(C(c2sc3nc(-c4ccco4)nn3c2O)N2CCC(O)CC2)c1 (stereo unspecified) 5.2%
CCOc1ccc(CCNC(=O)c2ccc3c(Cl)c4c(nc3c2)CCCC4)cc1 -16.5%
O=S(=O)(NCCc1nnc2ccc(SCc3ccc(Cl)cc3Cl)nn12)c1ccccc1 -0.504%
CCOc1ccccc1NC(=O)c1sc2nc3n(c(=O)c2c1C)CCCCC3 2.51%
Cc1cc(C)cc(NC(=O)CSc2nc3c(oc4ccccc43)c(=O)n2-c2ccccc2F)c1 -9.21%
COc1ccc2cc3cc(C(=O)NCc4ccc(C)cc4)oc3nc2c1 -10.4%
COc1ccc(F)cc1S(=O)(=O)NCCc1c(C)[nH]c2c(Cl)cccc12 -22%
CCc1cccc(OCC(=O)Nc2ccc(S(=O)(=O)Nc3cc(C)nc(C)n3)cc2)c1 -27.3%
COc1ccc(Nc2cc(C(=O)NCCc3ccc(C)cc3)c3ccccc3n2)c(OC)c1 17.1%
CCOC(=O)N1CCC(NC(=O)c2c(C)nn(-c3ccc(C)cc3)c2-n2cccc2)CC1 -19.8%
CCOCCCNC(=O)C1CCN(c2nn3cc(-c4ccc(F)cc4)nc3s2)CC1 -9.81%
CCCCOc1ccc(C(=O)Nc2nnc3n2CCS3)cc1 -5.03%
CCC(C(=O)OCCOCCN(CC)CC)c1ccccc1 (stereo unspecified) -0.602%
CCOc1ccc(-c2nn(CC(=O)NC3CCCCC3)c3c2cnc2ccc(C)cc23)cc1 13.9%
CCCn1c2ccccc2c2cnn(CC(=O)NCCc3ccc(OCC)cc3)c(=O)c21 -4.04%
COc1cc(-c2noc(-c3ccc(NCc4ccccc4)c([N+](=O)[O-])c3)n2)cc(OC)c1OC -6.19%
CCOc1ccc(NC(=O)CCNS(=O)(=O)c2ccc3c(c2)oc(=O)n3C)cc1 -9.82%
COc1ccc(NC(=O)Cn2nnc3sc4c(c3c2=O)CCC(C)C4)c(OC)c1 (stereo unspecified) -4.02%
COc1ccccc1CNC(=O)c1ccc2c(c1)N(Cc1cccc(C)c1)C(=O)c1ccccc1S2(=O)=O -11.9%
COc1ccc(Cl)cc1NC(=O)c1sc(-n2nc(C)c(Cc3ccccc3)c2C)nc1C 2.59%
Cc1ccc(C)c(Cn2c3ccccc3c3cnn(CC(=O)NCCC4=CCCCC4)c(=O)c32)c1 0%
CCn1c(=O)c2cc(C(=O)N(CCN(C)C)Cc3ccccc3)sc2c2ccccc21 -6.79%
Cc1nnc(SCc2ccccc2)c2cc3sccc3n12 36.6%
CCOc1cc(C(=O)N2CC(=O)Nc3ccc(C)cc3C2c2ccccc2)cc(OCC)c1OCC (stereo unspecified) -4.62%
COCCCNC(=O)CSC1=Nc2ccccc2C2=NC(CCC(=O)NCc3ccccc3OC)C(=O)N12 (stereo unspecified) -24.8%
COc1ccc(N2CCN(c3oc(/C=C/c4ccc(F)cc4)nc3C#N)CC2)cc1 38.1%
CCc1ccc(CN(Cc2ccco2)C(=O)c2ccc(OC)cc2)cc1 -14.6%
CCc1ccc(CNC(=O)CCC(=O)N2Cc3cccc(OC)c3Oc3ncccc32)cc1 -5.83%
COC(=O)c1cccnc1 -5.31%
O=C(Nc1cccc(C(=O)OCc2cc(=O)n3nc(C4CC4)sc3n2)c1)c1ccccc1 -7.3%
Cc1cc(C)cc(OC(C)C(=O)Nc2nonc2-c2ccc(Br)cc2)c1 (stereo unspecified) -18.2%
Cc1ccccc1NC(=O)CSc1nnc(C)c(=O)[nH]1 -14.3%
O=C(NCc1ccco1)C1CCN(C(=O)N2CCOc3ccccc32)CC1 2.04%
Nc1c(-c2nc(-c3cccs3)no2)nnn1-c1ccccc1Cl 53.7%
Cc1ccc(Cl)cc1N(C)C(=O)Cn1nc(Cc2cccnc2)c2ccccc2c1=O -22%
COCCn1c(CNC(=O)c2ccc(C)cc2)nc2cccnc21 3.96%
COc1ccccc1-c1nc2c3c(-c4ccccc4)c(-c4ccccc4)oc3ncn2n1 41.9% [at 11.5 µM]
Cc1ccccc1CS(=O)(=O)CC1Nc2ccc(C(=O)NCc3ccc(Cl)cc3)cc2NC1=O (stereo unspecified) -18.8%
CCOc1ccc(-c2nonc2NC(=O)c2oc3c(C)c(C)ccc3c2C)cc1OCC -30.4%
Cc1ccc(C)c(Cn2c3ccccc3c3cnn(CC(=O)NCCCc4ccccc4)c(=O)c32)c1 10%
COc1ccccc1N1CCN(C(=O)Cn2c(=O)n3nc(-c4cccc(C)c4)nc3c3ccccc32)CC1 -16.5%
CCCSc1ncc(Cl)c(C(=O)Nc2c(C(=O)c3ccc(F)cc3)oc3ccccc23)n1 -11.3%
CCN(C(=O)Cn1nc(Cc2ccncc2)c2ccccc2c1=O)c1cccc(C(F)(F)F)c1 -0.215%
CC(C)Cn1c(=O)c2ccccc2n2c(CCC(=O)Nc3ccc(F)c(F)c3)nnc12 6.31%
O=C(NCCc1ccccc1)c1ccc2c(c1)CCN2S(=O)(=O)c1ccccc1 -20.6%
CC(C)CSc1ccccc1NC(=O)c1sc2nc(-c3ccncc3)ccc2c1N -9.84%
CCOC(=O)c1c(NC(=O)C(C)Oc2ccc(Cl)c(C)c2)sc2c1CCCC2 (stereo unspecified) -12.1%
O=C(Cn1cc(S(=O)(=O)Cc2ccccc2F)c2ccccc21)NCc1ccccc1Cl -2.42%
COc1ccc(NC(=O)CCN2CCN(CCO)CC2)cc1 -22.7%
CCN(c1cc(C)cc(C)c1)S(=O)(=O)c1nnc(NC(=O)c2ccco2)s1 -17.8%
O=C(O)CCCCC(=O)O 3.6%
CCOc1ccc(C(=O)Nc2ccc(-c3nc4ccccc4s3)c(C)c2)cc1OCC 57.4%
Cc1cccc(N2CCN(C(=O)c3ccc(NC(=O)c4nsc5ccccc45)cc3)CC2)c1C -22%
Cc1ccc(NC(=O)Cn2nnc(-c3nc(-c4ccc(Cl)cc4)no3)c2N)cc1C 2.33%
CCc1nc2c(cnn2-c2ccc(Cl)cc2)c(=O)n1-c1ccc(OC)c(Cl)c1 -9.58%
Cc1ccc(OCC(=O)Nc2cc(-c3cccc(C)c3)nn2-c2ccccc2)cc1 30%
CCOc1ccccc1C(=O)Nc1cc2c(cc1N1CCOCC1)n(C)c(=O)n2C -5.36%
Cc1ccc(CCNC(=O)c2ccc3c(c2)c(C)c(C)n3Cc2ccccc2)cc1 -10.9%
NC(=S)N/N=C/c1cccnc1 9.95%
COc1ccc(-n2c(=O)c3sc4ccccc4c3n(CC(=O)NCc3ccccc3)c2=O)cc1 -6.52%
Cc1ccccc1CNC(=O)c1ccc(CS(=O)Cc2ccc(Cl)cc2)o1 (stereo unspecified) -28.2%
CCOc1ccc(N2CC(c3nc4ccccc4n3Cc3cccc(C)c3)CC2=O)cc1 (stereo unspecified) -27.7%
O=[N+]([O-])c1cc(-c2nc(-c3ccccc3)no2)ccc1NCCc1ccccc1 -16.3%
CCn1c(CC2C(=O)N(C)c3ccccc32)nc2ccccc2c1=O (stereo unspecified) -20.1%
COc1ccc(Cl)cc1NC(=O)CSc1nc(-c2ccccc2)c2ccccc2n1 -4.6%
O=C(Nc1cccc(F)c1)[C@@H](c1ccccc1)N1Cc2ccccc2C1=O -14.4%
CC(C)CC(C(=O)NCCc1ccccc1)N1Cc2ccccc2C1=O (stereo unspecified) -18.5%
CCc1ccc(NC(=O)CCCn2nc(C)c3c(C)n(-c4ccccc4)nc3c2=O)cc1 2.11%
CC(O)C(=O)O (stereo unspecified) 7.39%
CN(C)CCOC(c1ccccc1)c1ccccc1 8.06%
CCOc1ccc(CNC(=O)C2CCN(Cc3cc4ccccc4n3Cc3ccccc3C)CC2)cc1 0%
CC(=O)Nc1ccc2nc(SCCOc3ccccc3)sc2c1 14.4%
C[C@H]1C[C@@H]2[C@@H]([C@@H](O)C[C@@]3(C)[C@H]2CC[C@]3(O)C(=O)CO)[C@@]2(C)C=CC(=O)C=C12 -7.65%
Cc1ccc(NC(=O)C(=O)NCCCN2CCOCC2)cc1C 0.318%
Cc1cccc(NC(=O)C2(C)Cc3ccccc3C(=O)O2)c1 (stereo unspecified) 4.9%
Cc1c(CNC2CCCCCC2)c(C(=O)O)c(C)n1Cc1ccc(F)cc1 -10.1%
Cc1cc(C)cc(NC(=O)CCS(=O)(=O)c2ccc3c(c2)oc(=O)n3C)c1 -5.57%
Cc1cccc(-n2ncc3c(N4CCN(CCO)CC4)ncnc32)c1 42%
O=C(Nc1nnc2n1CCS2)c1ccccc1 27.1%
Cc1ccc(Cl)cc1NC(=O)N1CCc2cc(S(=O)(=O)N3CCC(C)CC3)ccc21 -5.53%
COc1ccccc1CNC(=O)c1ccc(Nc2nc3ccccc3n3nnnc23)cc1 -10.3%
CC(C)c1ccc(/C=C(\C#N)c2nc(-c3cc4ccccc4oc3=O)cs2)cc1 -3.1%
CCOc1ccccc1NC(=O)C1=C(C)Nc2ncnn2C1c1ccccn1 (stereo unspecified) -7.56%
CCOC(=O)CCn1cnc2onc(-c3ccccc3Cl)c2c1=O -3.46%
COc1cc(Cl)c(C)cc1NS(=O)(=O)c1c(C)nc2sccn2c1=O -7.83%
COC(=O)c1ccc(Nc2ncnc3c2cnn3-c2ccccc2)cc1 -9.86%
O=C(CCCCCCCCC#CI)Oc1ccccc1 -2.6%
COc1ccc(NC(=O)CN(c2ccccc2OC)S(C)(=O)=O)c(OC)c1 -1.7%
Cc1cc(C)cc(NC(=O)CCCn2nc(C)c3c(C)n(-c4ccccc4)nc3c2=O)c1 -3.91%
COc1cc(NC(=O)CCc2c(C)nc3c4c(C)cc(C)nc4nn3c2C)cc(OC)c1 0%
COc1cc(-c2nnc(SCC(=O)Oc3ccc(C)cc3C)o2)cc(OC)c1OC 3.83%
Cn1c(=O)cc(OCC(=O)N2CCN(c3ccc(F)cc3)CC2)c2ccccc21 3.21%
CCOCN(C(=O)Cn1c(CC(C)C)nc2ccccc21)c1c(C)cccc1CC -19.2%
CCOc1ccccc1Nc1ncnc2c1c(-c1ccccc1)cn2-c1ccc(OC)cc1 -19.8%
CC(C)c1ccc(NC(=O)C(NS(=O)(=O)c2ccc3c(c2)CCC(=O)N3)c2ccccc2)cc1 (stereo unspecified) -16.8%
Cc1cc(C)cc(NC(=O)c2ncn(-c3ccccc3)n2)c1 46%
CCc1ccc(NC(=O)N(Cc2cn(CC)c3ccccc23)C2CCCCC2)cc1 -11.3%
Cc1c(Cl)cccc1NC(=O)C(C)N(c1ccccc1)S(C)(=O)=O (stereo unspecified) -9.41%
O=S(=O)(c1ccccc1)c1nc(-c2ccccc2)oc1N1CCN(c2cccc(Cl)c2)CC1 -21%
Cc1ccc(-c2cn3cccnc3n2)cc1NC(=O)Cc1ccccc1 4.31%
O=C(CSCc1cnn(-c2ccccc2)c1-n1cccc1)NCc1ccccc1Br -18.3%
